The values that follow come from paper PMC4336329 (PLoS ONE, 2015).

The campaign covered roughly 310,000 compounds. About 14,000 (4.5%) showed an effect of 50% or more. The effect is printed as a negative number. Some of the results follow.
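Note: peak tail current of the secondary pulse compared with the same well before compound.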

Chain of human ether-à-go-go-related gene (hERG) potassium channel (Q12809 whole entry, looked up): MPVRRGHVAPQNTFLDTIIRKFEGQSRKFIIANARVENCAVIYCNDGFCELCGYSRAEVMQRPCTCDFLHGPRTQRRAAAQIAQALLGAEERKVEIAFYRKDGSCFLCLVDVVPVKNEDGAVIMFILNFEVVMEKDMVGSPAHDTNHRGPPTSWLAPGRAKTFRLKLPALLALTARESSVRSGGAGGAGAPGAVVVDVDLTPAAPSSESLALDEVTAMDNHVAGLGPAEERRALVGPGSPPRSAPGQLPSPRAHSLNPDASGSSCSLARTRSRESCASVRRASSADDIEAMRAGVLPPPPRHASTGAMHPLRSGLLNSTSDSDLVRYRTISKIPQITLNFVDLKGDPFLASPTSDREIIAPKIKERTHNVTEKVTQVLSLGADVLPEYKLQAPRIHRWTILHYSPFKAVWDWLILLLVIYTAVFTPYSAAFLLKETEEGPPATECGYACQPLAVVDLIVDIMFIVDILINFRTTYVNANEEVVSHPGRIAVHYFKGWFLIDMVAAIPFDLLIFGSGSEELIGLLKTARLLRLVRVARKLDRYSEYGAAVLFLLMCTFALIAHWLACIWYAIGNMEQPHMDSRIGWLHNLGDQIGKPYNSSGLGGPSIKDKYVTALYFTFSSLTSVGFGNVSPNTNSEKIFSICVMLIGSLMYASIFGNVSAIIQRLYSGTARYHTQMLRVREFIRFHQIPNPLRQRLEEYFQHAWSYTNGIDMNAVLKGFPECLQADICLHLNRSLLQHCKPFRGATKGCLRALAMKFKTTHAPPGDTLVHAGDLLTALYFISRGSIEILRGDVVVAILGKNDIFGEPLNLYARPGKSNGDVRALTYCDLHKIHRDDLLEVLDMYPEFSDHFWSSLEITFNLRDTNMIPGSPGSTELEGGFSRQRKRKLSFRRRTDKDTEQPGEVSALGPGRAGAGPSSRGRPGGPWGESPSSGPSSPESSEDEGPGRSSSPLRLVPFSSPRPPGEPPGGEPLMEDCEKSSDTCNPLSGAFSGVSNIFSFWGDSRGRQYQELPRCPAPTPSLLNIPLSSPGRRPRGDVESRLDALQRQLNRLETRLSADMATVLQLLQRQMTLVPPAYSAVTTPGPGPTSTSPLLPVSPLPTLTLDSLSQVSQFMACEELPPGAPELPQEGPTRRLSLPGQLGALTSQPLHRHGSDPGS

The test addresses human ether-à-go-go-related gene (hERG) potassium channel (human, UniProt Q12809). As to the kind of experiment: primary screen, population patch clamp on CHO cells stably expressing hERG.
In the case of `Cc1c(Br)c([N+](=O)[O-])nn1CC(=O)N1CCN(C23CC4CC(CC(C4)C2)C3)CC1`, the “hERG current change (%, negative = inhibition) at 10uM” value is -38.1%.

Consider `COc1cc(OC)c(OC)cc1/C=N/NC(=O)C[n+]1ccccc1.[Cl-]`, for which the “hERG current change (%, negative = inhibition) at 10uM” value is -12.6%.

`CSc1nnc(COc2ccc(C)cc2)n1N`: the “hERG current change (%, negative = inhibition) at 10uM” value amounted to 24.8%.

With `CC(C)N(Cc1ccccc1)C(=O)c1cccs1`, the “hERG current change (%, negative = inhibition) at 10uM” value is recorded as 10%.

On to `COc1cccc(NC(=O)C(=O)N/N=C(\C)CC(=O)Nc2ccc(NC(C)=O)cc2)c1`, for which the “hERG current change (%, negative = inhibition) at 10uM” value is listed as 24.4%.

Regarding `Cl.c1ccc(CC2=NCCN2)cc1`, the “hERG current change (%, negative = inhibition) at 10uM” value was 7.57%.

As for `Cc1ccc(Cl)cc1Nc1nc(-c2sc(NC(=O)c3ccccc3)nc2C)cs1`, the “hERG current change (%, negative = inhibition) at 10uM” value is -11.7%.

`CCN(CC(=O)Nc1c(F)cccc1F)C(=O)c1cnccn1`: the “hERG current change (%, negative = inhibition) at 10uM” value is recorded as -0.365%.

As to `O=C(Nc1scc(-c2ccccc2)c1C(=O)O)c1ccc(F)cc1`, the “hERG current change (%, negative = inhibition) at 10uM” value was determined as 34%.

As to `Cc1nc(CC(=O)NNS(=O)(=O)c2ccc(F)c(Cl)c2)cs1`, the “hERG current change (%, negative = inhibition) at 10uM” value was found to be 20%.

Turning to `Cn1c(SCC(=O)N2CCCC2)nnc1-c1cccs1`, the “hERG current change (%, negative = inhibition) at 10uM” value was found to be 4.73%.

In the case of `CCOC(=O)N1CCN(C(=O)CNC(=O)c2nn(-c3ccc(OC)cc3OC)c(=O)c3ccccc23)CC1`, the “hERG current change (%, negative = inhibition) at 10uM” value was -4.94%.

With `CCc1nnc(NC(=O)CCC(=O)NC2CCCC2)s1`, the “hERG current change (%, negative = inhibition) at 10uM” value is -3.36%.

For the compound `O=C(CNC(=O)c1cc2c(s1)CCC2)Nc1ccccc1Br`, the “hERG current change (%, negative = inhibition) at 10uM” value is 11.6%.

On to `COc1ccccc1NC(=O)N1CCc2c([nH]c3ccccc23)C1C(F)(F)F` (centres unmarked), for which the “hERG current change (%, negative = inhibition) at 10uM” value was -0.609%.

Consider `CCN1CCN(CCNC(=O)CCCn2nc(C)c3c(C)n(-c4ccc(C)cc4)nc3c2=O)CC1`, for which the “hERG current change (%, negative = inhibition) at 10uM” value is on record as 0.678%.

With `COc1ccc(Oc2c(C)oc3c(CN(C)C)c(O)ccc3c2=O)cc1`, the “hERG current change (%, negative = inhibition) at 10uM” value is reported as -1.88%.

`O=C(NCc1ccc2c(c1)OCO2)C(=O)Nc1cc2c3c(c1)CC(=O)N3CCC2`: the “hERG current change (%, negative = inhibition) at 10uM” value was -11%.

Turning to `COc1ccccc1N1CCN(C(=S)Nc2ccc(S(=O)(=O)N3CCOCC3)cc2)CC1`, the “hERG current change (%, negative = inhibition) at 10uM” value came out at 12.1%.

For the compound `O=C(NNC(=S)Nc1ccccc1Cl)C1CC1`, the “hERG current change (%, negative = inhibition) at 10uM” value worked out at 15.8%.

For `Cc1cccc(C)c1NC(=S)NC(=O)c1ccc(Br)o1`, the “hERG current change (%, negative = inhibition) at 10uM” value is on record as -2.33%.

As to `CCOc1ccc(-c2nc(C#N)c(NCc3ccc4c(c3)OCO4)o2)cc1`, the “hERG current change (%, negative = inhibition) at 10uM” value is listed as 11.3%.

Take `Cn1c(-c2ccc(C=O)s2)nc2ccccc21`: the “hERG current change (%, negative = inhibition) at 10uM” value is recorded as -7.61%.

For the compound `Cc1ccc(C2(C)NC(=O)N(Cc3c(C)noc3C)C2=O)cc1` (centres unmarked), the “hERG current change (%, negative = inhibition) at 10uM” value worked out at 4.32%.

`CCOc1ccc(NC(=O)CN2CCN(C3c4ccccc4-c4ccccc43)CC2)cc1`: the “hERG current change (%, negative = inhibition) at 10uM” value is on record as -40.3%.

For the compound `O=C(NNc1ccc([N+](=O)[O-])cc1)C1CC1c1ccccc1` (centres unmarked), the “hERG current change (%, negative = inhibition) at 10uM” value is reported as -15.1%.

As for `C/C(=N\NC(=O)c1ccc(Cl)cc1)c1ccc(Br)s1`, the “hERG current change (%, negative = inhibition) at 10uM” value turned out to be 2.93%.

Regarding `CC(C)c1ccc(NC2CCCN(C(=O)c3ccco3)C2)cc1` (centres unmarked), the “hERG current change (%, negative = inhibition) at 10uM” value worked out at 12.5%.

On to `COc1ccc(OC)c(-n2c(-c3ccccc3)n[nH]c2=S)c1`, for which the “hERG current change (%, negative = inhibition) at 10uM” value stood at 11.3%.

With `COc1cccc(CN2CCN(Cc3ccc(O)c(OC)c3)CC2CCO)c1` (centres unmarked), the “hERG current change (%, negative = inhibition) at 10uM” value is -5.76%.

Regarding `O=C(CCCOc1ccccc1)Nc1nccs1`, the “hERG current change (%, negative = inhibition) at 10uM” value is given as -13%.

With `O=S1c2ccccc2Nc2ccccc21`, the “hERG current change (%, negative = inhibition) at 10uM” value came out at 16.2%.

On to `CCOC(=O)C(CO)(NC(C)=O)C(=O)OCC`, for which the “hERG current change (%, negative = inhibition) at 10uM” value was found to be 11.3%.

On to `O=C(C1CCN(S(=O)(=O)c2cccc3nsnc23)CC1)N1CCCc2ccccc21`, for which the “hERG current change (%, negative = inhibition) at 10uM” value is recorded as -24%.

`CC1CC(NS(=O)(=O)c2cc3c4c(c2)CCN4C(=O)CC3)CC(C)(C)C1` (centres unmarked): the “hERG current change (%, negative = inhibition) at 10uM” value is -63.1%.

With `COC(=O)c1cn(CC(=O)NCc2cccs2)c2ccccc12`, the “hERG current change (%, negative = inhibition) at 10uM” value came out at 7.93%.

`CSc1ccc(NC(=O)c2cccnc2)cc1C#N`: the “hERG current change (%, negative = inhibition) at 10uM” value was 6.39%.

Regarding `O=C(Cc1ccccc1)NN1C(=O)C2C3C=CC(C3)C2C1=O` (centres unmarked), the “hERG current change (%, negative = inhibition) at 10uM” value was 12.4%.

With `CN1CCN(C(=O)C2CCN(c3ncc(C(F)(F)F)cc3Cl)CC2)CC1`, the “hERG current change (%, negative = inhibition) at 10uM” value is -11.4%.

Turning to `O=[N+]([O-])c1ccc(Cl)c(S(=O)(=O)Nc2ccc(-c3ccc(N4CCCC4)nn3)cc2)c1`, the “hERG current change (%, negative = inhibition) at 10uM” value is given as -4.5%.

With `O=C(Cn1cnc2cc([N+](=O)[O-])ccc2c1=O)Nc1cccc(S(=O)(=O)N2CCOCC2)c1`, the “hERG current change (%, negative = inhibition) at 10uM” value is on record as -33.2%.

For `CCCC(C)C(=O)Nc1ccc(S(=O)(=O)N2CCCC2)cc1` (centres unmarked), the “hERG current change (%, negative = inhibition) at 10uM” value worked out at 8.89%.

In the case of `CN(CCC1CCOCC1)C(=O)CC1C(=O)NCCN1CC1CCCCC1` (centres unmarked), the “hERG current change (%, negative = inhibition) at 10uM” value is listed as -0.614%.

Take `COc1ccc(CN(CC2CCCO2)S(=O)(=O)c2ccc(-n3cnnn3)c(OC)c2)cc1` (centres unmarked): the “hERG current change (%, negative = inhibition) at 10uM” value is -44%.
